# The shares of active, inactive and inconclusive entries below differ from those in the screen. For some of these results: Potencies beside an inconclusive call are fits to weak or partial responses and may not hold up. A structure can be active in one record and inactive in another. Activity calls are given as the source filed them. Unless noted, calls follow the shape of the dose curve; as a rule, active = well fitted curve in the direction sought with a large enough effect in the repeat runs; inconclusive = weak or mixed curves; inactive = no such curve, though single readings can be large; an effect the other way counts as inactive or inconclusive.
# What was measured:
# [1] = qHTS assay to identify small molecule antagonists of the constitutive androstane receptor (CAR) signaling pathway - cell viability counter screen (AID 1224837); also: nearly all actives have a fitted effect of over 45% in size; also: potency is read from the fitted curve at half-maximal effect
# Outline: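 Fluorescence from CellTiter-Fluor served as the viability signal. Human hepatoma HepG2 cells stably bearing hCAR and CYP2B6-2.2kb received compound plus CITCO (50 nM final) for 23 hr.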
# [2] = biological target: Nuclear receptor subfamily 1 group I member 3 (Homo sapiens) (UniProt Q14994); test: qHTS assay to identify small molecule agonists of the constitutive androstane receptor (CAR) signaling pathway (AID 1224839); also: nearly all actives have a fitted effect of over 15% in size; also: potency is read from the fitted curve at half-maximal effect;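 as to activation: HepG2 cells stably carrying human CAR and a CYP2B6 luciferase reporter; % is scaled to controls: 0 for no effect and ±100 for the full control effect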
# Sequence of UniProt Q14994 (Q14994 whole entry, looked up): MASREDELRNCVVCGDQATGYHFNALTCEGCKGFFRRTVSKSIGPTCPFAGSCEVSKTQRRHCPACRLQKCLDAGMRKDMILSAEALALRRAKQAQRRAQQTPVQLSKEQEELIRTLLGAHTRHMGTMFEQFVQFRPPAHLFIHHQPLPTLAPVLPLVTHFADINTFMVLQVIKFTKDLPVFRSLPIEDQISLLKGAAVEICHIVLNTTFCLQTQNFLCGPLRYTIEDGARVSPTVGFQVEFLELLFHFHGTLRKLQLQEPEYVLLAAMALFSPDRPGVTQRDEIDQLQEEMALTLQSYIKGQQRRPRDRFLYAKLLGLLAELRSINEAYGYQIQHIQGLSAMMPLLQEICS
# Outline: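 Stable hCAR/CYP2B6-2.2kb HepG2 line in DMEM with 10% FBS; compounds (15 concentrations) and 0.75 uM PK11195 final, 24 h at 37 C/5% CO2, then ONE-Glo luminescence after 30 min.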
# [3] = qHTS assay to identify small molecule antagonists of the estrogen related receptor signaling pathway with the pleiotropic PPARgamma coactivator (PGC) from Tox21 10K library (AID 1224841; call rule not given here; also: actives are mostly falling curves and most rising ones were filed inactive; nearly all actives have a fitted effect of over 50% in size; also: potency is read from the fitted curve at half-maximal effect)
# Outline: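 Compound exposure ran 18 hours at 37 C in PGC/ERR cells (2,000/well) that had first rested 6 hours in a 37 C/5% CO2 incubator. Luciferase activity was then detected with One-Glo after a 30-minute room-temperature step.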
# [4] = qHTS assay to identify small molecule antagonists of the estrogen related receptor signaling pathway with the pleiotropic PPARgamma coactivator (PGC) from Tox21 10K library - cell viability counter screen (AID 1224840; active = well fitted cell-killing curve with a large enough effect in the repeat runs, not every such curve was filed as active; inconclusive = weak or mixed curves, or effect the other way; inactive = no such curve, though single readings can be large or run the other way; also: nearly all actives have a fitted effect of over 40% in size; also: potency is read from the fitted curve at half-maximal effect)
# Outline: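 Compounds in DMSO, alongside positive and negative controls, were pinned onto PGC/ERR cells (2,000 per well). Exposure lasted 17.5 hours at 37 C, followed by a 30-minute CellTiter-Fluor incubation and fluorescence reading.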
# [5] = qHTS assay to identify small molecule agonists of the estrogen related receptor signaling pathway with the pleiotropic PPARgamma coactivator (PGC) from Tox21 10K library (AID 1224842); also: % is scaled to controls: 0 for no effect and ±100 for the full control effect; nearly all actives have a fitted effect of over 15% in size
# Outline: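 PGC/ERR reporter cell line, 2,000 cells per well, incubated 6 h at 37 C before 23 nL compound in DMSO was added. After 18 h at 37 C, One-Glo luminescence read following 30 min at room temperature.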
# [6] = qHTS RealTime-Glo MT Cell Viability Assay in HEK293 cells - 32 hour (AID 1224868); also: potency is read from the fitted curve at half-maximal effect; nearly all actives have a fitted effect of over 50% in size
# Outline: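 Nonlytic real-time viability readout: viable cells convert prosubstrate to NanoLuc substrate, giving luminescence proportional to live cell number. HEK293, 600 cells/well, compound added after 5 h, continuous culture at 37 C.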
# [7] = qHTS assay to identify small molecule agonists of H2AX (AID 1224845; active = well fitted activation curve with a large enough effect in the signal ratio in the repeat runs, not every such curve was filed as active; inconclusive = weak or mixed curves; the % refers to the signal ratio; also: potency is read from the fitted curve at half-maximal effect; as to activation (H2AX phosphorylation): % is scaled to controls: 0 for no effect and ±100 for the full control effect); settings: CHO-K1 phospho-H2AX Ser139 HTRF, 3 h; activation (H2AX phosphorylation): at 154 µM (top of the series) unless noted
# Outline: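 Wild-type CHO-K1 cells, plated overnight, exposed 3hr at 37C to 15 concentrations (0.76% DMSO final). Lysed, then HTRF anti-pH2AX (S139) cryptate and anti-H2AX-d2 antibodies, 24 hr room temperature; 665/620 nm emission read.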
# [8] = qHTS assay to identify small molecule antagonists of the estrogen related receptor (ERR) signaling pathway from Tox21 library (AID 1224848); also: potency is read from the fitted curve at half-maximal effect; nearly all actives have a fitted effect of over 50% in size
# Outline: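 Luminescent reporter read-out (ONE-Glo) from NTP's ERR cell line after 18 h treatment at 37 C with DMSO-dissolved Tox21 compounds; cells pre-plated 6 h beforehand at 2,000 per well.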
# [9] = biological target: Nuclear receptor subfamily 1 group I member 3 (Homo sapiens) (UniProt Q14994); test: qHTS assay to identify small molecule antagonists of the constitutive androstane receptor (CAR) signaling pathway (AID 1224838);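 also: HepG2 cells stably expressing hCAR with CYP2B6 luciferase reporter stimulated by CITCO; potency is read from the fitted curve at half-maximal effect; nearly all actives have a fitted effect of over 40% in size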
# Outline: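 Quantitative HTS in double-stable HepG2-CYP2B6-hCAR cells. After 4 h plating, cells get compound (15 concentrations) and CITCO at 50 nM final, incubate 24 h at 37 C, then ONE-Glo luminescence is read.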
# [10] = qHTS assay to identify small molecule agonists of H2AX - cell viability counter screen (AID 1224847; calls by dose curve; also: potency is read from the fitted curve at half-maximal effect; nearly all actives have a fitted effect of over 30% in size)
# Outline: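 Viability of CHO-K1 (wild type) cells after 3 hr compound exposure was measured by CellTiter-Glo luminescence.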
# [11] = qHTS assay to identify small molecule agonists of the hypoxia (HIF-1) signaling pathway (AID 1224846; active = well fitted activation curve with a large enough effect in the signal ratio in the repeat runs, not every such curve was filed as active; inconclusive = weak or mixed curves; the % refers to the signal ratio; also: potency is read from the fitted curve at half-maximal effect); settings: HRE-bla ME-180 cells, beta-lactamase ratio, 17 h; activation: at 76.8 µM (top of the series) unless noted
# Outline: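 Measured by blue/green FRET after loading CCF4-AM: beta-lactamase expressed from a hypoxia response element in ME-180 cells. Test agents were delivered in DMSO and left 17 hrs; cells had been plated 5 hrs earlier in low-serum (0.5% dialyzed FBS) medium.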
# [12] = biological target: Thyrotropin receptor (Homo sapiens) (UniProt P16473); test: qHTS assay to identify small molecule agonists of the thyroid stimulating hormone receptor (TSHR) signaling pathway (AID 1224843; calls by dose curve; also: % is scaled to controls: 0 for no effect and ±100 for the full control effect; nearly all actives have a fitted effect of over 45% in size); settings: TSHR-HEK293 cells, cAMP HTRF, agonist mode, 30 min; activation: at 92.4 µM (top of the series) unless noted
# Sequence of UniProt P16473 (P16473 whole entry, looked up): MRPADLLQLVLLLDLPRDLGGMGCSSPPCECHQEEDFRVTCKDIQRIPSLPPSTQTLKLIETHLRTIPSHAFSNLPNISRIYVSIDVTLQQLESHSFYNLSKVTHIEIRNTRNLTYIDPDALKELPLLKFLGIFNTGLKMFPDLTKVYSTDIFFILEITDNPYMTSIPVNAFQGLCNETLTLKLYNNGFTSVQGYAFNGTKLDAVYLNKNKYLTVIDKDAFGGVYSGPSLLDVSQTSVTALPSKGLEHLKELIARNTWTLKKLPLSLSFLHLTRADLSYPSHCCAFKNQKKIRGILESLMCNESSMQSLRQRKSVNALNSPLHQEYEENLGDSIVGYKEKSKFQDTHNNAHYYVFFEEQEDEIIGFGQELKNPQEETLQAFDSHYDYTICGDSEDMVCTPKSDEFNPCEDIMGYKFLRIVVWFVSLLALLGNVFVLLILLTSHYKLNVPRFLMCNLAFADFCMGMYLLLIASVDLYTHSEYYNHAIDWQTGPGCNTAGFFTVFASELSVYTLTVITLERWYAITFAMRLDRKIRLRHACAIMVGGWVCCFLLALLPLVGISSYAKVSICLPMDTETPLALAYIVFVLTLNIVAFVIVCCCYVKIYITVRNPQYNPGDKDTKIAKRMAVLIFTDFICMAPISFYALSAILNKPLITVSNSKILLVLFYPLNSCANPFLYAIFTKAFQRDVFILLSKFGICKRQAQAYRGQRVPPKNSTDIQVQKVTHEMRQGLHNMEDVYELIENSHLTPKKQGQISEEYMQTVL
# Outline: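 Steps: seed 800 TSHR-HEK293 cells per well; add test compound and hold 30 min at ambient temperature; dispense cAMP-d2 then anti-cAMP cryptate; incubate 1 h at ambient; measure fluorescence intensity.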
# [13] = qHTS assay to identify small molecule agonists of the hypoxia (HIF-1) signaling pathway - cell viability counter screen (AID 1224844; calls by dose curve; also: potency is read from the fitted curve at half-maximal effect; nearly all actives have a fitted effect of over 50% in size)
# Outline: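 Luminescent ATP content (CellTiter-Glo, 30 min, room temperature) served as the viability measure in HRE-bla ME-180 cells exposed to compounds for 17 hrs in low-serum medium (0.5% dialyzed FBS).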
# [14] = A CellTox Green Cytotoxicity Assay to monitor cytotoxicity in HEK293 cells - 0 hour (AID 1224869)
# Outline: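 Each value comes from one timepoint of a single continuous run in which HEK293 cells with CellTox Green were exposed to compound for up to 40 h at 37 C, dye fluorescence rising with cell death.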
# [15] = qHTS RealTime-Glo MT Cell Viability Assay in HepG2 cells - 24 hour (AID 1224867)
# Outline: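 Luminescence read-out: viable HepG2 cells reduce a prosubstrate to a NanoLuc substrate, giving a signal proportional to live cell number. Reads taken at 0, 8, 16, 24, 32 and 40 h of compound exposure at 37 C.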
# Tags tell the direction and shape of the fitted curve or compound fluorescence and quenching.
structure (smiles),measurement,setting,value
CCCCCCCCCCCBr,Potency,[1],inactive
same,Potency,[2],inactive
CCNC(=O)NCCCOc1cccc(CN2CCCCC2)c1,Potency,[1],inactive
C[C@]12C=CC(=O)C=C1[C@@H](F)C[C@@H]1[C@@H]2[C@@H](O)C[C@@]2(C)[C@H]1CC[C@]2(O)C(=O)CO,Potency,[1],inactive
same,Potency,[3],inactive
N#CCc1cccc(C(F)(F)F)c1,Potency,[1],inactive
CC(C)C[C@H]1C(=O)N2CCC[C@H]2[C@]2(O)O[C@](NC(=O)[C@@H]3C=C4c5cccc6[nH]c(Br)c(c56)C[C@H]4N(C)C3)(C(C)C)C(=O)N12,Potency,[1],"inconclusive: 23.2 µM [cytotoxic, partial curve, poor fit]"
same,Potency,[2],"inconclusive: 20.7 µM [activator, partial curve, poor fit]"
same,Potency,[4],"inconclusive: 20.7 µM [cytotoxic, single point]"
same,Potency,[3],active: 16.4 µM
same,Potency,[5],inactive
same,Potency,[6],"inconclusive: 7.4 µM [cytotoxic, partial curve]"
COc1ccc(C(=O)N2CCN(CC(=O)N3CCOCC3)CC2)cc1,Potency,[1],inactive
CC1CCc2c(N3CCC(O)CC3)c(F)cc3c(=O)c(C(=O)O)cn1c23 (configuration not stated),Potency,[1],inactive
same,Potency,[3],"inconclusive: 8.41 µM [falling, partial curve]"
same,Potency,[7],inactive
same,Potency,[8],"inconclusive: 11.9 µM [inhibitor, partial curve]"
Cn1cc[nH]c1=S,Potency,[1],"inconclusive: 68.5 µM [cytotoxic, single point]"
same,Potency,[9],inconclusive: 68.5 µM [inhibitor]
Cc1cccc(NC(=S)N(C)C)c1,Potency,[1],active: 61.1 µM
same,Potency,[9],"inconclusive: 68.6 µM [inhibitor, single point]"
same,Potency,[10],"inconclusive: 127 µM [cytotoxic, single point]"
COc1cc(C=O)ccc1OC(=O)C(C)C,Potency,[1],inactive
Oc1ccc(O)c2c(O)cccc12,Potency,[1],inactive
same,Potency,[4],inactive
same,Potency,[11],"inconclusive: 54.4 µM [falling, single point]"
CCCc1cc(=O)[nH]c(=S)[nH]1,Potency,[1],inactive
same,Potency,[2],inactive
same,Potency,[7],inactive
C=C[Si]1(C)O[Si](C)(C=C)O[Si](C)(C=C)O[Si](C)(C=C)O1 (configuration not stated),Potency,[1],inactive
NC(Cc1c[nH]c2ccccc12)C(=O)O (configuration not stated),Potency,[1],inactive
CC1(C)O[C@@H]2C[C@H]3[C@@H]4CCC5=CC(=O)C=C[C@]5(C)[C@H]4[C@@H](O)C[C@]3(C)[C@]2(C(=O)CO)O1,Potency,[1],inactive
Cc1cc2c(s1)Nc1ccccc1N=C2N1CCN(C)CC1,Potency,[1],active: 3.35 µM
COc1cc2c(cc1OC)[C@@H]1CC(=O)[C@@H](CC(C)C)CN1CC2,Potency,[1],inactive
same,Potency,[12],inactive
CCCCCCCCCCCC(=O)Cl,Potency,[1],inactive
same,Potency,[4],inactive
same,Potency,[13],inconclusive: 54.9 µM [cytotoxic]
same,Potency,[14],"inconclusive: 11 µM [activator, partial curve, poor fit]"
CCN(CC)c1ccc(N=Nc2ccccc2)cc1,Potency,[1],"inconclusive: 34.4 µM [cytotoxic, partial curve]"
same,Potency,[4],"inconclusive: 61.1 µM [cytotoxic, partial curve]"
same,Potency,[13],inconclusive: 61.6 µM [cytotoxic]
same,Potency,[7],"inconclusive: 127 µM [falling, partial curve, poor fit]"
same,Potency,[11],"inconclusive: 30.9 µM [falling, partial curve]"
CCCCCC(=O)O,Potency,[1],inactive
same,Potency,[3],active: 54.5 µM
CC(C)CC=O,Potency,[1],inactive
CCCC(C)=O,Potency,[1],inactive
CC(C)C(=O)Nc1cccc(C2CN3CCSC3=N2)c1 (configuration not stated),Potency,[1],inactive
CCCCCCCCC(C)=O,Potency,[1],inactive
OCCCC1CCCCC1,Potency,[1],inactive
CC(C)C[C@H](NC(=O)[C@H](Cc1ccccc1)NC(=O)c1cnccn1)B(O)O,Potency,[1],active: 0.266 µM
same,Potency,[4],"inconclusive: 0.0841 µM [cytotoxic, full curve]"
same,Potency,[3],active: 0.0188 µM
same,Potency,[13],active: 0.0213 µM
same,Potency,[7],"inconclusive: 15.6 µM [rising, full curve]"
same,Potency,[10],"inconclusive: 0.22 µM [rising, full curve]"
same,Potency,[8],active: 0.0237 µM
same,Potency,[15],"inconclusive: 0.12 µM [falling, full curve]"
same,Potency,[6],active: 0.0379 µM
CSc1ccc(O)cc1C,Potency,[1],inconclusive: 68.6 µM [cytotoxic]
same,Potency,[2],"inconclusive: 54.5 µM [activator, single point]"
same,activation,[12],inconclusive: -24.6%
same,Potency,[13],"inconclusive: 54.9 µM [cytotoxic, single point]"
same,Potency,[7],active: 113 µM
same,Potency,[11],"inconclusive: 61.6 µM [falling, single point]"
same,Potency,[6],"inconclusive: 49 µM [cytotoxic, partial curve, poor fit]"
